Reference: EP4509523A1 (Deutsches Primatenzentrum GmbH (DPZ), dated 2025)

What was measured:
Test in all cases: flow cytometry on transfected Jurkat cells, anti-IgG-Fc detection (Fig. 3)
human KIR2DL1 = molecular target: T1, human KIR2DL1 (human, UniProt P43626 22-348)
T1 construct: whole, on cells

human KIR3DS1 = molecular target: T2, human KIR3DS1 (human, UniProt Q14943 22-382)
T2 construct: whole, on cells; also called KIR3DS01

human KIR2DL3 = molecular target: T3, human KIR2DL3 (human, UniProt P43628 22-341)
Sequence of human KIR2DL3 (P43628 22-341): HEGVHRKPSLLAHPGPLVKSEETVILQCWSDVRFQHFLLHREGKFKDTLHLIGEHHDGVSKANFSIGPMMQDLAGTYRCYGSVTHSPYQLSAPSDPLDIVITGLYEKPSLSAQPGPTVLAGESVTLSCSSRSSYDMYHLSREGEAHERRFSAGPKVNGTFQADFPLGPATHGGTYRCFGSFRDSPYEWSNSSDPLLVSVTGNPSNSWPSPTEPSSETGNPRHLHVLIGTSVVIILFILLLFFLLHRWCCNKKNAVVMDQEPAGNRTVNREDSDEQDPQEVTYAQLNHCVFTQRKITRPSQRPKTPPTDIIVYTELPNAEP
T3 construct: whole, on cells

Measured: binding result

Sequence of human KIR3DS1 (Q14943 22-382): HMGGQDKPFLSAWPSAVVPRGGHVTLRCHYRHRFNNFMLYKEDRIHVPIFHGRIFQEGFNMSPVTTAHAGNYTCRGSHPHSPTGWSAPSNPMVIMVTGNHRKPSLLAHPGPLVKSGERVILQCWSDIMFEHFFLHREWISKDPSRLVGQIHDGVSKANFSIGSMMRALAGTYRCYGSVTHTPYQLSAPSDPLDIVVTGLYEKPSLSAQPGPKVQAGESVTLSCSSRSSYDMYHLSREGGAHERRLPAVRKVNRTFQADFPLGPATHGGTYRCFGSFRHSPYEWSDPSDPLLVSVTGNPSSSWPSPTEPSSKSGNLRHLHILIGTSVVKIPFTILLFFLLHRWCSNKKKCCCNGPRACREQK
Sequence of human KIR2DL1 (P43626 22-348): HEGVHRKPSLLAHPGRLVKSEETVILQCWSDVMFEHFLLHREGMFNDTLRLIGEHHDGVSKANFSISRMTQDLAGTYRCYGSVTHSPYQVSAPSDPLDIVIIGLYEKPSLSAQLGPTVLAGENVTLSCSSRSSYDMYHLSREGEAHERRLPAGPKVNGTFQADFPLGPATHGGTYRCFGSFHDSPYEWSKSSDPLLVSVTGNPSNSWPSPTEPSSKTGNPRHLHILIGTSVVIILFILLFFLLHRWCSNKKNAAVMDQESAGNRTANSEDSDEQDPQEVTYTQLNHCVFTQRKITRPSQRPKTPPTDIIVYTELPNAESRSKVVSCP

B1: KIR3DX1rep-IgG1-Fc (Fc fusion)
chain: GAQDKFSLSAWPSPVVPLGGRVTLSCHSHLRFVIWTIFQTTGTRSHELHTGLSNNITISPVTPEHAGTYRCVGIYKHASKWSAESNSLKIIVTGLFTKPSISAHPSSLVHAGARVSLRCHSELAFDEFILYKEGHIQHSQQLDQGMEAGIHYVEAVFSMGPVTPAHAGAYRCCGCFSHSRYEWSAPSDPLDIVITGKYKKPSLSTQVDPMMRLGEKLTLFCSSEISFDQYHLFRHGVAHGQWLSGGQRHREAFQANFSVGRATPVPGGTYRCYGSFNDSPYEWSAPSDPLQLYTTGNTKSTPLSFTESTPESDTPRPQGQSSNLH[human IgG1 Fc omitted]
notes: also called KIR3DX1rep-Fc; KIR3DX1repaired-IgG1-Fc
no binding: all assays above
